What was measured:
Test in all cases: minimum inhibitory concentration
Streptomycin = compound: CN[C@@H]1[C@H](O[C@H]2[C@H](O[C@H]3[C@H](O)[C@@H](O)[C@H](N=C(N)N)[C@@H](O)[C@@H]3N=C(N)N)O[C@@H](C)[C@]2(O)C=O)O[C@@H](CO)[C@H](O)[C@H]1O [Streptomycin]
Procedure: (§1)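 Broth microdilution MIC per ISO 10932 on precoated VetMIC Lact-1 plates (tylosin, vancomycin and ampicillin plates prepared manually) against lactic acid bacteria and bifidobacteria isolates. Plates were read visually after 48 h anaerobic incubation (bifidobacteria 72 h; enterococci and staphylococci 24 h aerobic) at species-specific temperatures of 30 or 37 °C. Values prefixed with < or > are outside the tested dilution range.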

Ampicillin = compound: CC1(C)S[C@@H]2[C@H](NC(=O)[C@H](N)c3ccccc3)C(=O)N2[C@H]1C(=O)O [Ampicillin]
Procedure: as §1

Tetracycline = compound: CN(C)[C@@H]1C(O)=C(C(N)=O)C(=O)[C@@]2(O)C(O)=C3C(=O)c4c(O)cccc4[C@@](C)(O)[C@H]3C[C@@H]12 [Tetracycline]
Procedure: as §1

Erythromycin = compound: CC[C@H]1OC(=O)[C@H](C)[C@@H](O[C@H]2C[C@@](C)(OC)[C@@H](O)[C@H](C)O2)[C@H](C)[C@@H](O[C@@H]2O[C@H](C)C[C@H](N(C)C)[C@H]2O)[C@](C)(O)C[C@@H](C)C(=O)[C@H](C)[C@@H](O)[C@]1(C)O [Erythromycin]
Procedure: as §1

Clindamycin = compound: CCC[C@@H]1C[C@@H](C(=O)N[C@@H]([C@H]2O[C@H](SC)[C@H](O)[C@@H](O)[C@H]2O)[C@H](C)Cl)N(C)C1 [Clindamycin]
Procedure: as §1

Chloramphenicol = compound: O=C(N[C@H](CO)[C@H](O)c1ccc([N+](=O)[O-])cc1)C(Cl)Cl [Chloramphenicol]
Procedure: as §1

Gentamicin = compound: CNC(C)C1CCC(N)C(OC2C(N)CC(N)C(OC3OCC(C)(O)C(NC)C3O)C2O)O1 [Gentamicin]
Procedure: as §1

Kanamycin = compound: NC[C@H]1O[C@H](O[C@H]2[C@H](O)[C@@H](O[C@H]3O[C@H](CO)[C@@H](O)[C@H](N)[C@H]3O)[C@H](N)C[C@@H]2N)[C@H](O)[C@@H](O)[C@@H]1O [Kanamycin]
Procedure: as §1

Neomycin = compound: NC[C@@H]1O[C@H](O[C@H]2[C@@H](O)[C@H](O[C@@H]3[C@@H](O)[C@H](N)C[C@H](N)[C@H]3O[C@H]3O[C@H](CN)[C@@H](O)[C@H](O)[C@H]3N)O[C@@H]2CO)[C@H](N)[C@@H](O)[C@@H]1O [Neomycin]
Procedure: as §1
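Note: isolates derived from commercial starter, protective, probiotic or feed-additive cultures, from fermented products, from human gut mucosa or feces, and from human milk or colostrum.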

Test System	minimum inhibitory concentration (Streptomycin)	minimum inhibitory concentration (Ampicillin)	minimum inhibitory concentration (Tetracycline)	minimum inhibitory concentration (Erythromycin)	minimum inhibitory concentration (Clindamycin)	minimum inhibitory concentration (Chloramphenicol)	minimum inhibitory concentration (Gentamicin)	minimum inhibitory concentration (Kanamycin)	minimum inhibitory concentration (Neomycin)
Lacticaseibacillus paracasei IM1355 (strain group: non-starter strains)	16 µg/mL	1 µg/mL	2 µg/mL	0.5 µg/mL	1 µg/mL	8 µg/mL	4 µg/mL	128 µg/mL	8 µg/mL
Lacticaseibacillus casei IM1103 (strain group: non-starter strains)	32 µg/mL	2 µg/mL	1 µg/mL	0.25 µg/mL	0.25 µg/mL	8 µg/mL	16 µg/mL	128 µg/mL	32 µg/mL
Limosilactobacillus reuteri IM844 (strain group: human milk or colostrum)	16 µg/mL	> 16 µg/mL	> 64 µg/mL	0.5 µg/mL	0.12 µg/mL	4 µg/mL	1 µg/mL	64 µg/mL	1 µg/mL
Limosilactobacillus fermentum IM864 (strain group: human milk or colostrum)	32 µg/mL	0.5 µg/mL	8 µg/mL	0.25 µg/mL	0.06 µg/mL	8 µg/mL	2 µg/mL	64 µg/mL	2 µg/mL
Lactiplantibacillus plantarum IM1160 (strain group: non-starter strains)	64 µg/mL	1 µg/mL	16 µg/mL	0.5 µg/mL	1 µg/mL	8 µg/mL	4 µg/mL	128 µg/mL	4 µg/mL
Lactiplantibacillus plantarum IM1019 (strain group: non-starter strains)	64 µg/mL	0.5 µg/mL	8 µg/mL	0.5 µg/mL	1 µg/mL	8 µg/mL	8 µg/mL	128 µg/mL	8 µg/mL
Lacticaseibacillus casei IM1120 (strain group: non-starter strains)	16 µg/mL	2 µg/mL	1 µg/mL	0.25 µg/mL	0.5 µg/mL	4 µg/mL	4 µg/mL	64 µg/mL	8 µg/mL
Lacticaseibacillus casei IM831 (strain group: probiotic strains)	64 µg/mL	2 µg/mL	1 µg/mL	0.25 µg/mL	0.12 µg/mL	8 µg/mL	8 µg/mL	64 µg/mL	16 µg/mL
Limosilactobacillus fermentum IM847 (strain group: human milk or colostrum)	16 µg/mL	1 µg/mL	4 µg/mL	0.25 µg/mL	0.06 µg/mL	4 µg/mL	1 µg/mL	64 µg/mL	2 µg/mL
Lacticaseibacillus casei IM1125 (strain group: non-starter strains)	16 µg/mL	2 µg/mL	1 µg/mL	0.12 µg/mL	0.12 µg/mL	4 µg/mL	4 µg/mL	32 µg/mL	4 µg/mL
Pediococcus acidilactici/pentosaceus/lolli IM718 (strain group: human milk or colostrum)	128 µg/mL	4 µg/mL	32 µg/mL	1 µg/mL	0.12 µg/mL	8 µg/mL	8 µg/mL	256 µg/mL	16 µg/mL
Lacticaseibacillus paracasei IM1093 (strain group: non-starter strains)	8 µg/mL	1 µg/mL	0.5 µg/mL	0.12 µg/mL	< 0.03 µg/mL	4 µg/mL	1 µg/mL	16 µg/mL	2 µg/mL
Pediococcus acidilactici/pentosaceus/lolli IM715 (strain group: human milk or colostrum)	128 µg/mL	4 µg/mL	32 µg/mL	0.5 µg/mL	0.12 µg/mL	4 µg/mL	8 µg/mL	256 µg/mL	8 µg/mL
Lacticaseibacillus paracasei IM693 (strain group: human intestinal mucosa or faeces)	16 µg/mL	1 µg/mL	2 µg/mL	0.25 µg/mL	0.12 µg/mL	8 µg/mL	2 µg/mL	16 µg/mL	4 µg/mL
Lentilactobacillus kefiri IM1367 (strain group: non-starter strains)	16 µg/mL	0.25 µg/mL	2 µg/mL	0.5 µg/mL	0.06 µg/mL	4 µg/mL	2 µg/mL	8 µg/mL	4 µg/mL
Lacticaseibacillus paracasei IM1281 (strain group: non-starter strains)	32 µg/mL	1 µg/mL	1 µg/mL	0.12 µg/mL	0.25 µg/mL	4 µg/mL	4 µg/mL	64 µg/mL	4 µg/mL
Lactiplantibacillus plantarum IM1151 (strain group: non-starter strains)	32 µg/mL	1 µg/mL	16 µg/mL	0.5 µg/mL	< 0.03 µg/mL	4 µg/mL	2 µg/mL	64 µg/mL	2 µg/mL
Latilactobacillus curvatus IM1007 (strain group: non-starter strains)	16 µg/mL	1 µg/mL	1 µg/mL	0.12 µg/mL	0.12 µg/mL	4 µg/mL	2 µg/mL	32 µg/mL	2 µg/mL

From the supplement of paper PMC9542798
